Laboratory results taken from patent US20110286916A1 (published 2011).

Legend:
[1] = target: T1, Notch1 extracellular fragment (amino acid 19-526) Fc fusion protein, R&D Systems 3647-TK (human, UniProt P46531 19-526); test: BIAcore SPR, Notch1/Fc on CM5, Mab analyte, 1:1 binding
T1 construct: bought protein; also called Notch1/Fc; Notch1-ECD Fc fusion protein; not shown: Fc of the bought fusion protein
Description: All experiments were performed at 25° C. at a flow rate of 40 μl/min. […] FC1 was used as the reference cell. Specific signals were the results of differences of signals obtained on FC2 versus FC1. […] The dissociation phase of the analyte was monitored over a period of time ranging 10-30 minutes. Running buffer was also injected under the same conditions as a reference.
Equilibrium dissociation constant (KD) was calculated by the ratio between dissociation (koff) and association (kon) rate constants.

[2] = target: human Notch3-Gal4 chimeric receptor on U2OS FlpIn TREx cells (human, UniProt Q9UM47 40-2321); test: cell-based or functional assay
[3] = target: T1, Notch1 extracellular fragment (amino …); test: titration ELISA, antigen coated, purified IgG1
Description: Plates were blocked with 300 ul of milk blocker per well and incubated for 2 hour at RT. […] After washing plates with PBS or TBS buffer, anti-human lambda light chain antibody with HRP was used for detection antibody and absorbance at 450 nm was read with a plate reader.

[4] = target: T2, human full-length Notch1 with C-terminal FLAG tag, stably expressed on 293 FlpIn (TREx) cells (human, UniProt P46531 19-2555); test: FACS, hN1 293 cells, MFI grade (++ 101-500)
T2 construct: tetracycline/doxycycline-induced expression from pcDNA5/FRT/TO-HN1+FLAG; also called hN1; 293_N1
Description: Notch 293 FlpIn (TREx) cells were treated with dox (2 ug/ml) for two days to induce Notch expression before collecting them for FACS surface expression analysis. The cells were harvested from tissue culture flasks using Trypsin for 15 min, centrifuged at 1200 rpm for 10 minutes and resuspended in 2 ml PBS with 2% fetal bovine serum (2% FBS/PBS). The cells were counted, adjusted to 10⁷ cells/ml and 0.1 ml of cells was incubated with 1 ug of each Mab for 40 minutes at 4° C. The cells were washed, resuspended in 0.1 ml 2% FBS/PBS and incubated with 1 ug R-PE-conjugated goat anti-human Ig (Jackson ImmunoResearch) for 30 minutes at 4° C. Cells were washed, resuspended in 0.3 ml PBS with 10% formaldehyde and analyzed on a FACSCalibur (Becton Dickinson, Mt View, Calif.).

B1: WC-133 (antibody, human IgG1, lambda, V domains shown)
VH: [about 100 residues not spelt out]DSFDYWGQGTLVTVSS
VL: SYELTQPPSASGTPGQRVTISCSGSNSNIGSNTLNWYQQLPGTAPKLLIYSNNQRPSWVPDRFSGSKSGTSASLAISGLQSEDEADYYCAAWDDSLNGLIFGGGTKLTVLQ
notes: also called N1wc133; Hn1WC-133
Kd [1]: 1.66 nM | koff [1]: 0.00026 s⁻¹ | kon [1]: 157000 M⁻¹ s⁻¹ | hN3, inhibition of Luc activity at [166 nM] Mab [2]: < 10% | EC50 [3]: 0.17 nM | MFI [4]: 101 to 500 mfi
